Test results reported in PubChem BioAssay AID493208 (National Center for Advancing Translational Sciences (NCATS), 2011).
Among all 44,000 compounds or so, about 340 (0.77%) were called active. Roughly 5% stayed inconclusive and do not appear here. Calls come from the whole dose curve; as a rule, active = well fitted inhibition curve with a large enough effect; inconclusive = small, poorly fitted or top-dose-only effect; inactive = flat fitted curve, though single readings scatter. Some of the results follow.

assay: Acumen qHTS Assay for Inhibitors of the mTORC1 Signaling Pathway in MEF (Tsc2-/-, p53-/-) Cells: Sytravon; settings: phospho-rpS6 immunofluorescence/PI, 24 h; series mostly up to 38.3 µM; activity change, negative = inhibition: at the top concentration;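 note: plate controls were DMSO for no effect and rapamycin for full effect; nearly all actives have a fitted effect of over 50% in size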
Summary of the method: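 Read-out: phospho-S6 Alexa-488 intensity over PI intensity per well, scored as % active cells using thresholds from rapamycin (7.5 nM) and DMSO controls. Tsc2-/-, p53-/- MEFs exposed to compound for 24 h; PI cell count recorded as viability.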

Activity change, negative = inhibition, inactive:
CCOC(=O)c1cccc2c1N[C@@H](c1ccc(F)cc1)[C@H]1CC=C[C@@H]21 -15.3%
Cc1ccc(CNC(=O)Cn2c(=O)n(Cc3ccc(F)cc3)c(=O)c3sc4ccccc4c32)cc1 -20.5%
O=C(Nc1ccc(Cl)cc1)N1CCC(c2ccccc2)C1 (stereo not drawn) -5.46%
Cc1cc(-c2ccc(S(=O)(=O)Nc3ccc(Cl)cc3C)cc2)on1 -8.36%
COc1cccc(N2CC(NC(=O)/C=C\c3ccc(OC)c(OC)c3)CC2=O)c1 (stereo not drawn) -0.767%
CCC(C)NC(=O)CN1C(=O)COc2ccc(S(=O)(=O)N3CCOCC3)cc21 (stereo not drawn) -1.25%
Cc1cccc(Oc2ccc3c(c2)Oc2ccccc2NC3=O)c1 -15.1%
Cc1ccc(NC(=O)Cn2cc(S(=O)(=O)N3CCC(C)CC3)c3ccccc3c2=O)c(Br)c1 6.97%
COc1ccc(CNC(=O)c2cnn(-c3ccc(F)cc3)c2-n2cccc2)cc1 -3.85%
CCCCN(CCCNC(=O)c1c(C)oc2nc[nH]c(=O)c12)Cc1ccccc1 -4.35%
CNC(=O)c1c(NC(=O)c2ccc(S(=O)(=O)N3CCCCC3C)cc2)sc2c1CCC2 (stereo not drawn) -4.88%
Cc1ccc(Nc2c(-c3cccnc3)nc3ccc(Br)cn23)cc1 -1.35%
COc1ccc(-c2nnc(SCC(=O)N(C)Cc3ccccc3)o2)cc1OC 1.59%
CCOC(=O)c1cc(-c2ccccc2)n(-c2cccc(C(=O)Nc3cccc(C(C)=O)c3)c2)c1C -5.12%
COc1cccc(N2CCN(C(=O)CN3C(=O)COc4ccc(S(=O)(=O)N5CCC(C)CC5)cc43)CC2)c1 -16.2%
Cc1oc2c(c(C)cc3oc(=O)c(CC(=O)NCc4ccccc4)c(C)c32)c1C 1.29%
COc1ccc(C)cc1-n1nnc(C(=O)Nc2cccc(SC)c2)c1C 3.4%
Cc1c(Cl)cccc1NC(=O)Cn1cc2c(n1)CCCC2 5.15%
COc1ccc(C(=O)NCC(c2cccnc2)N2CCc3ccccc32)cc1OC (stereo not drawn) 9.36%
Cc1cccc(CNC(=O)c2ccc(NC(=O)N3CCSc4ccccc43)cc2)c1 2.47%
O=C(CSc1nc2c([nH]c3ccccc32)c(=O)n1-c1ccccc1)N1CCCCCC1 -1.54%
CC1CCc2c(sc(NC(=O)COc3ccccc3C(C)(C)C)c2C#N)C1 (stereo not drawn) 16.9%
Cc1ccc(NC(=O)Cn2c(SCc3ccc(F)cc3)nc3cccnc32)cc1F 1.56%
O=C(O)c1ccc(NC(=O)c2cc3ccccc3o2)cc1 8.69%
CCc1ccc(-n2nc(C)c3c(C)cc(=O)n(CC(=O)Nc4ccccc4C(=O)OC)c32)cc1 -11.8%
CSCCC(NS(=O)(=O)c1ccc2c(c1)oc(=O)n2C)C(=O)N1CCN(c2ccc(F)cc2)CC1 (stereo not drawn) -0.389%
CCCCOc1ccc(C(=O)N/C(=C\c2ccc(Br)cc2)C(=O)NC2CCCCC2)cc1 3.83%
Cc1nc2c3ccccc3nc(NNC(=O)CCC(=O)N3CCN(c4cccc(C(F)(F)F)c4)CC3)n2n1 -1.27%
Cc1cccc(-n2ccnc2SCC(=O)Nc2ccc3c(c2)OCO3)c1 -1.41%
O=C(Nc1cccc(F)c1)C1CCN(c2nc3ccccc3[nH]2)CC1 -15.7%
CCc1cccc(NC(=O)CCS(=O)(=O)c2ccc3nc(C)sc3c2)c1 1.92%
COc1ccc(CNc2ncnc3c2cnn3-c2ccc(C)c(C)c2)cc1 0%
COc1ccc(CN2C(=O)c3oc4ccccc4c(=O)c3C2c2ccc(O)c(OC)c2)cc1 (stereo not drawn) -2.45%
CCCCSCCCNC(=O)C1CCC(CNS(=O)(=O)c2c(C)cc(C)cc2C)CC1 (stereo not drawn) -10.6%
CCOc1ccc(CNC(=O)c2ccc3c(c2)nc2n3CCC(C)C2)cc1OC (stereo not drawn) -15.8%
COc1cccc(C(=O)NC2CC(=O)N(c3ccc4c(c3)OCCO4)C2)c1OC (stereo not drawn) -8.23%
CC(=O)c1ccc(NC(=O)CCc2c(C)nn(-c3ccc(N4CCCCC4)nn3)c2C)cc1 -3.42%
Cc1csc2nc(CCNS(=O)(=O)c3ccc(F)cc3)cn12 0.195%
CCOC(=O)c1c(NC(=O)c2ccc(OC)c(OC)c2)sc2c1CCCCC2 0.351%
O=C(Nc1ccc2oc(-c3ccc(Cl)cc3)nc2c1)c1ccc2ccccc2c1 5.21%
CCN(CC)c1cc(C)c2cc(NC(=O)c3ccc(F)cc3Cl)ccc2n1 -4.35%
Cn1c(=O)oc2cc(S(=O)(=O)N3CCC(C(=O)N4CCN(c5ccc(Cl)cc5)CC4)CC3)ccc21 -3.46%
CCOc1ccccc1NC(c1nnc(-c2ccccc2)o1)c1ccc(F)cc1Cl (stereo not drawn) -7.59%
Cc1cccc(NS(=O)(=O)c2ccc(NC(=O)N3CCCC3)cc2)c1 -8.62%
CCOC(=O)c1cc(C)n(CC2CCC(C(=O)Nc3ccc(C(=O)OC)cc3)CC2)c1C (stereo not drawn) -9.44%
Cc1ccccc1CNC(=O)Nc1ccc2c(c1)N(C)C(=O)c1ccccc1S2 -28.1%
COc1ccc(C2CC(=O)N(Cc3ccccc3)c3c2c(C)nn3-c2nc(C)cc(C)n2)c(OC)c1 (stereo not drawn) -13.6%
CCC(=O)N1CCc2cc(Br)cc(S(=O)(=O)CCC(=O)NCCc3ccccc3)c21 -14.9%
